# Experimental data taken from patent US20120010254A1 (priority 2008, published 2012).
smiles,measurement,value
"CCC(CC)OC1CC(C(=O)O)=CC(n2cc(CCc3ccccc3)nn2)C1NC(C)=O (stereo not shown) [Compound 4, 4-Acetylamino-5-(1-ethyl-propoxy)-3-(4-phenethyl-[1,2,3]triazol-1-yl)-cyclohex-1-enecarboxylic acid]",Solubility in water,insoluble
